The whole screen tested about 360,000 compounds, of which about 740 (0.21%) were called active. Inconclusive results, whose numbers are uncertain, are shown with a selection of clear calls. Calls follow the shape of the dose curve; as a rule, active = well fitted inhibition curve with a large enough effect; inconclusive = small, poorly fitted or top-dose-only effect; inactive = no such curve, though single readings can be large or run the other way. No potency is given beside an inconclusive call; the fits are too rough.
tested on: Plasmodium falciparum AMA1 (3D7) - RON2 peptide interaction; test: qHTS for Inhibitors of AMA1-RON; Towards Development of Antimalarial Drug Lead: Primary Screen; conditions: AlphaScreen AMA1-biotinylated RON2 peptide binding; activity change, negative = inhibition: at 58.2 µM (top of the series) unless noted; also: nearly all actives have a fitted effect of over 45% in size;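 as to activity change, negative = inhibition: 0% = vehicle wells and -100% = peptide control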
Procedure, shortened: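 AMA1 (3D7) with his tag at 25 nM final met compounds first, then biotinylated RON2 peptide at 25 nM; detection used donor plus acceptor beads, 10 µg/mL apiece, read by AlphaScreen after 30 min at room temperature.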
Potency is read from the fitted curve at half-maximal effect; tags tell the direction and shape of the fitted curve.

SMILES | Potency | activity change, negative = inhibition
CC(=O)c1ccc(N2Cc3ccccc3C2=NC(=O)c2cccs2)cc1 | inactive | 
CC1=NN(c2ccccc2)C(=O)C1C=Nc1ccc(N(C)C)cc1 (centres undefined) | inconclusive [inhibitor, partial curve] | 
Cc1ccc(NC(=S)N2CCN(Cc3ccccc3)CC2)cc1 | inactive | 
CN(C)c1ccc(CC(=O)N2CCCC(c3cc(C(=O)Nc4ccccc4)no3)C2)cc1 (centres undefined) | inconclusive [inhibitor, single point] | 
COc1ccc(C2C(C(C)=O)=C(C)N=c3s/c(=C\c4ccco4)c(=O)n32)c(OC)c1 (centres undefined) | inconclusive [inhibitor, partial curve] | 
COc1cc2sc(-c3ccccc3OC)c(-c3ccc(OCCN4CCOCC4)cc3)c2cc1OC | inconclusive [inhibitor, partial curve] | 
CC(=O)NCc1c(Cl)cccc1-n1cccc1 | inactive | 
O=C(c1c[nH]c2ccc(S(=O)(=O)N3CCOCC3)cc2c1=O)N1CCC2(CC1)OCCO2 | inconclusive [inhibitor, partial curve, poor fit] | 
O=C(c1ccc(Cl)cc1)c1cnc(-c2ccccc2)s1 | inconclusive [inhibitor, full curve, poor fit] | 
CCOc1cc(N2CCOCC2)c(OCC)cc1NC(=O)c1c(-c2ccccc2)noc1C | inconclusive [inhibitor, single point] | 
CC1(O)c2ccccc2C(=O)N1CCc1ccccc1F (centres undefined) | inactive | 
CC(C)C(=O)N1CCN(c2ccccc2NC(=O)c2ccc([N+](=O)[O-])o2)CC1 | inactive | 
O=[N+]([O-])c1ccc(O)c(-c2nc(-c3ccccc3)c(-c3cccs3)[nH]2)c1 | inactive | 
COc1ccc(NC(=O)CN2CCC(NC(=O)c3ccc(OC)cc3)CC2)cc1 | inactive | 
CCN(CC)C(=O)COc1ccc(/C(C)=N/Nc2ncc(Cl)cc2Cl)cc1 | inactive | 
COc1cc2c(cc1NC(=O)COC(=O)C1CC(=O)N(Cc3ccco3)C1)oc1ccccc12 (centres undefined) | inactive | 
NS(=O)(=O)c1ccc(N=Nc2c(O)ccc3ccccc23)cc1 | inconclusive [inhibitor, single point] | 
O=C(COC(=O)CCCc1c[nH]c2ccccc12)Nc1ccc2c(c1)OCO2 | inconclusive [inhibitor, single point] | 
CN1CCN(c2ncnc3c2c(-c2ccccc2)cn3-c2ccc(F)cc2)CC1 | inconclusive [inhibitor, partial curve] | 
O=C(NN1C(=O)C2C(c3ccccc3)C=CC(c3ccccc3)C2C1=O)c1cccc(Br)c1 (centres undefined) | inactive | 
Cc1cc(C(=O)CSc2ccc3c(c2)OCCO3)c(C)n1C1CC1 | inconclusive [inhibitor, partial curve] | 
COc1cc(O)c(C(CCN2CCCC(C)C2)c2ccc(N(C)C)cc2)c(OC)c1 (centres undefined) | inconclusive [inhibitor, single point] | 

SMILES | Potency | activity change, negative = inhibition
CSCCC(c1nnnn1-c1c(C)cccc1C)N1CCN(C/C=C/c2ccccc2)CC1 (centres undefined) | inconclusive [inhibitor, partial curve] | 
CCCCNc1nc2ccccc2n1CC(=O)Nc1c(C)cccc1CC | inactive | 
COc1ccc(CN2CCN(Cc3ccc4ccccc4c3)CC2)cc1OC | inconclusive [inhibitor, partial curve] | 
COc1ccccc1C1CCN(c2ccc(CO)cc2[N+](=O)[O-])CC1 | inconclusive [inhibitor, single point] | 
Cc1ccc(N/C(C(Cl)=C(Cl)Cl)=C(/Cl)[N+](=O)[O-])c(C)c1 | inconclusive [inhibitor, single point] | 
C=CC(=O)Nc1cccc(N(C)c2ccnc(Nc3ccc(N4CCN(C)CC4)cc3)n2)c1 | active: 22.4 µM | 
O=C(c1cc(C2CC2)nn1-c1ccccc1)N1CCN(S(=O)(=O)c2ccccc2)CC1 |  | inconclusive: -21% [inhibitor]
CN1CCN(c2ccc(CNC(=O)c3cccc4c(-c5ccc(F)c(F)c5)coc34)cc2)CC1 | active: 14.1 µM | 
Clc1ccc(-[n+]2c(-c3cccc(Br)c3)[nH]c3nc4ccccc4nc32)cc1 | inconclusive [inhibitor, full curve] | 
COc1ccc2c(c1)c(C(=O)CNc1nc(C)cs1)c(C)n2C | inconclusive [inhibitor, single point] | 
COc1ccc(NC(=O)CSc2ncc(-c3ccc(F)cc3)n2Cc2ccco2)cc1 | inconclusive [inhibitor, partial curve, poor fit] | 
CCCCc1ccc(NC(=S)NCC2CCCO2)cc1 (centres undefined) | inconclusive [inhibitor, full curve, poor fit] | 
CCOC(=O)c1cccc(NC(=O)c2cccs2)c1 | inactive | 
CCOC(=O)c1ccccc1NC(=O)COC(=O)c1cc([N+](=O)[O-])ccc1N1CCOCC1 | inconclusive [inhibitor, single point] | 
COc1cccc(CNc2ccc3[nH]c(=O)[nH]c3c2)c1OCc1ccccc1Cl | inconclusive [inhibitor, single point] | 
CC(C)n1cnc2c(NCc3ccccc3)cc(Cc3ccc(F)cc3)cc21 | inconclusive [inhibitor, partial curve] | 
CCCC(CCC)=NNc1ccc(S(=O)(=O)Nc2ccccc2OC)cc1[N+](=O)[O-] | inconclusive [inhibitor, partial curve] | 
Cn1c(=O)c2cc(NC(=S)NCc3ccccc3F)ccc2n1C | inactive | 
C/C(CC(=O)Nc1ccc(Cl)c(C(F)(F)F)c1)=N\NC(=O)c1cccc(O)c1 | inactive | 
COc1ccc(-c2ccccc2)cc1NCc1ccc(OC)c(OC)c1 | inconclusive [inhibitor, single point] | 
Cn1c(=O)c(=O)n(C)c2cc([N+](=O)[O-])c(N3CCOCC3)cc21 | inconclusive [inhibitor, full curve] | 
O=C(NCCCN1CCOCC1)C(=O)N/N=C/c1c(Cl)cccc1Cl | inactive | 
